The whole screen tested about 310,000 compounds, of which about 14,000 (4.5%) showed an effect of 50% or more. The effect is printed as a negative number. This is one part of the list.
What follows are compounds tested against human ether-à-go-go-related gene (hERG) potassium channel (human, UniProt Q12809) (assay: primary screen, population patch clamp on CHO cells stably expressing hERG).
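Note: peak tail current of the secondary pulse compared with the same well before compound.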

Chain of human ether-à-go-go-related gene (hERG) potassium channel (Q12809 whole entry, looked up): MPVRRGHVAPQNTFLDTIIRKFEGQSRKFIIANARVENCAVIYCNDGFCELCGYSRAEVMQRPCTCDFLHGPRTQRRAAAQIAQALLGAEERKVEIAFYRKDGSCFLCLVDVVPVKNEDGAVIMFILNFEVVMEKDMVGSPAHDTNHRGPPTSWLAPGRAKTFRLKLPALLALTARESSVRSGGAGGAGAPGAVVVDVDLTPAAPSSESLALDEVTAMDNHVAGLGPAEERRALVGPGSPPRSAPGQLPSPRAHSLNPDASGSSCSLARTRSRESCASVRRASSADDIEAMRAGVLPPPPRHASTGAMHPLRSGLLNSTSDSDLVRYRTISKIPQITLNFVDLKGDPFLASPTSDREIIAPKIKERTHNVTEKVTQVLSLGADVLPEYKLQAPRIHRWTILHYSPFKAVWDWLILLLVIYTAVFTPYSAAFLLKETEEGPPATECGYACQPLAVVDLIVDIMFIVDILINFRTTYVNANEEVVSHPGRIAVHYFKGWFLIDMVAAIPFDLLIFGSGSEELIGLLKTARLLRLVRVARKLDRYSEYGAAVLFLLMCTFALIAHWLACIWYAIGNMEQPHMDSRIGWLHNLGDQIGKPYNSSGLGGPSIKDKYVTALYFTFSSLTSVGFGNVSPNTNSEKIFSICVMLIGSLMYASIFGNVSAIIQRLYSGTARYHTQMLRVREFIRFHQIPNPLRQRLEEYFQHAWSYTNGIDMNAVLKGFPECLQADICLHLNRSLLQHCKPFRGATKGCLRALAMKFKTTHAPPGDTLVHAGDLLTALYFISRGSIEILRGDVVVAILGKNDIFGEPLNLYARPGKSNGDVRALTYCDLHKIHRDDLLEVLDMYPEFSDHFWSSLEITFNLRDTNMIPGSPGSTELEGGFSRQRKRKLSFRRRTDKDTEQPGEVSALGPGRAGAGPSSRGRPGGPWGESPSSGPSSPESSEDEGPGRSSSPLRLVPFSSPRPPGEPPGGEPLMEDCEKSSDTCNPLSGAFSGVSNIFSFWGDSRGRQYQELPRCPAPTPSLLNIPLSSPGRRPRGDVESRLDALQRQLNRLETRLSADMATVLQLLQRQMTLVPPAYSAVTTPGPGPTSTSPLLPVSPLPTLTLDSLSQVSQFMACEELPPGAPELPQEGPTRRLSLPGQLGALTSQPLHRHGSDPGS

SMILES | hERG current change (%, negative = inhibition) at 10uM [%]
Cc1ccc(C)c(NS(=O)(=O)c2ccc3c(c2)Cc2cc(S(=O)(=O)Nc4cc(C)ccc4C)ccc2-3)c1 | 4.5
CCCC(=O)Nc1cc(C)c(NC(=O)c2cccs2)cn1 | -1.84
CC(C)CC(=O)c1c[nH]c(C(=O)NCC2CCCO2)c1 (centres unmarked) | 12.1
COc1ccc(C(=O)CCNc2ccc3c(c2)OCCO3)cc1 | 27.6
Cc1cc(C)n(CC(=O)N2CCCC(N3CCN(c4cccc(C(F)(F)F)c4)CC3)C2)n1 (centres unmarked) | -19.5
COc1ccc(-c2n[nH]c3c2CN(C(=O)c2ccc(OC)c(OC)c2)CC3)cc1 | -15.5
COC(=O)c1cn(C(=O)c2cccc(C)c2)c2ccccc12 | -10.8
Cc1ccc(NC(=O)COC(=O)CCc2c[nH]c(=O)[nH]2)cc1 | 1.45
Cn1c(=O)c2c(nc(NCC3CCCO3)n2Cc2cccc(Br)c2)n(C)c1=O (centres unmarked) | -4.28
O=C(COc1ccc(S(=O)(=O)N2CCCCC2)cc1)Nc1ccccc1F | 16.8
Cc1ccc(C)c(NC(=O)CN(C)C(=O)Cc2ccccc2)c1 | -2.83
CCOC(=O)C1CCCN(S(=O)(=O)CCNC(=O)c2ccc(F)cc2)C1 (centres unmarked) | -16.7
O=C(N/N=C/c1cccnc1)C(O)c1ccccc1 (centres unmarked) | 16
CCSc1nnc(NC(=O)NCC(F)(F)F)s1 | 2.59
O=C(O)COc1ccc(/C=N/NC(=O)/C(=C/C=C/c2ccccc2)NC(=O)c2ccccc2)cc1 | 19.2
Cn1c(=O)c2c(nc(SCCN3CCCCC3)n2C)n(C)c1=O | 3.49
COc1ccc(C(=O)C(C)OC(=O)c2nc3nccc(C)n3n2)cc1 (centres unmarked) | 2.98
N#Cc1ccc(C(=O)OCCCc2cc3ccccc3c(=O)o2)cc1 | -69.4
Cc1ccnc(NS(=O)(=O)c2ccc(NC(=O)c3oc4ccc(F)cc4c3C)cc2)n1 | -1.75
COc1ccc(-n2c(SCC(=O)Nc3ncc(Cl)cc3Cl)nc3ccccc32)cc1 | -7.86
Cc1cc(C(=O)CSc2ccc(Cl)cc2)cc(C)c1OC(=S)N(C)C | 9.6
CC(C)c1ccccc1NC(=O)CCCC(=O)O | 6.18

SMILES | hERG current change (%, negative = inhibition) at 10uM [%]
COc1ccc(NC(=O)CNC(=O)Cn2c(C)cc3ccccc3c2=O)cc1OC | 12.3
Cc1ccc(-n2c3c(cc(C(=O)O)c2=O)C(=O)CC(C)(C)C3)cc1 | 19.2
Cn1c(O)c(C(C#N)=C2N=c3ccccc3=N2)c2ccccc21 | -5.16
COCCNC(=O)C(=O)NCC1OCCN1S(=O)(=O)c1cccs1 (centres unmarked) | 0.574
CCOC(=O)C1(Cc2ccccc2)CCN(Cc2cc(=O)c3ccccc3[nH]2)CC1 | 13.5
O=C(Nc1ccc(O)c(-c2nc3ccccc3o2)c1)C1(c2ccc(Br)cc2)CCCC1 | 5.36
COc1ccc(N2CC(C(=O)N/N=C/c3ccc(C)cc3)CC2=O)cc1 (centres unmarked) | -18.8
COCc1c(C(=O)N/N=C/c2ccc(C)o2)nnn1-c1nonc1N | 17.6
COc1ccc(/C=C/C(=O)OCC(=O)N2CCc3ccccc32)cc1 | -0.65
CCOC(=O)CSc1ncc(OC)c(Sc2ccc(OC)cc2)n1 | -15.5
O=C(NNC(=O)c1c(F)cccc1F)c1sccc1-n1cccc1 | 11
CCC1(c2ccc(F)cc2)NC(=O)N(CC(=O)Nc2ccccc2C)C1=O (centres unmarked) | 4.76
O=C(CSC1CN(C(c2ccccc2)c2ccccc2)C1)N/N=C/c1ccc(Cl)cc1Cl | 12.8
CCCC(C(=O)Nc1ccc(S(=O)(=O)N2CCOCC2)cc1)c1ccccc1 (centres unmarked) | -13.7
COCCSc1nnc(NC(=O)CSCc2ccccc2)s1 | 7.34
CC(=O)N1c2ccc(S(=O)(=O)NCC3CCC(C(=O)NCc4ccco4)CC3)cc2CC1C (centres unmarked) | 17
CC(C)(Oc1ccc(Cl)cc1)C(=O)OCC(=O)N1CCN(c2ccccc2)CC1 | -7.02
CC(C)C1Oc2ccccc2N(CC(=O)N(C)C2CCCCC2)C1=O (centres unmarked) | -10.1
CCCCOC(=O)C1=C(N)OC2=C(C(=O)CCC2)[C@]12C(=O)N(C)c1ccccc12 | -5.2
CN1CCN(S(=O)(=O)c2cccc(C(=O)Nc3sc4c(c3C(N)=O)CCCC4)c2)CC1 | -9.38
CCCCn1c(N)c(N(CCC(C)C)C(=O)CC2OC(=O)c3ccccc32)c(=O)[nH]c1=O (centres unmarked) | 2.07
CC(NC(=O)C(C)N1C(=O)C2C3CC(C(Br)C3Br)C2C1=O)c1ccccc1 (centres unmarked) | -4.14

SMILES | hERG current change (%, negative = inhibition) at 10uM [%]
N#Cc1ccccc1NC(=O)C1CC(=O)N(c2ccc3c4c(cccc24)CC3)C1 (centres unmarked) | 1.8
Cc1c(C)c2ccc(OCC(=O)N(C)C)c(C)c2oc1=O | -6.44
C=CCSc1nnc(NC(=O)c2cn(CC)c3nc(C)ccc3c2=O)s1 | -9.96
O=C(COc1ccc(S(=O)(=O)NCc2ccccc2)cc1)NCC1CCCO1 (centres unmarked) | -1.71
COc1ccccc1CNC(=O)c1cc(-c2ccncc2)nc2c(Cl)cccc12 | 10.5
CC1CCCC(C)N1C(=O)CSc1nnc(-c2ccco2)n1C (centres unmarked) | 5.84
Cc1cc2cc(OCc3ccccc3)ccc2n1C | 18
CCC(C)(C)C1CCC2(CC1)NC(=O)N(CC(=O)Nc1cc(C(F)(F)F)ccc1N1CCOCC1)C2=O (centres unmarked) | 16.7
O=C(COc1cc2oc(=O)cc(-c3ccccc3)c2cc1Cl)NCCN1CCOCC1 | 2.07
COc1cc2c(cc1OC)C(c1cccc([N+](=O)[O-])c1)N(C(=O)c1ccccc1C(=O)O)CC2 (centres unmarked) | 18.1
Cn1c(CCN2CCOCC2)nc2cc(NS(=O)(=O)c3ccccc3)ccc21 | -1.84
CCOC(=O)C1CCCN(C(=O)CSc2nccn2C)C1 (centres unmarked) | -0.344
NNC(=O)c1sc(-c2ccc(Cl)cc2)cc1N | 20.2
CC(=O)c1cccc(NC(=O)C2CCCN2S(=O)(=O)c2cccc3cccnc23)c1 (centres unmarked) | -10.8
Cc1sc2c(c1C)C(=O)NC(c1cccc(O)c1)N2 (centres unmarked) | 19.7
CC(C)(C)NC(=S)NC1CC1 | 14.8
Cc1cc(Cl)ccc1N(CC(=O)N=Nc1c(O)[nH]c2ccccc12)S(C)(=O)=O | -13.2
COc1ccc(OC)c(-n2cnc3cc(C(=O)O)ccc32)c1 | 3.06
Cc1cccc(C)c1N1CCN(S(=O)(=O)c2ccccc2)CC1 | 11.4
CCOc1ccc(S(=O)(=O)N2CCN(c3ccccc3OC)CC2)c2cccnc12 | -14.6
O=C(O)c1ccccc1NCc1ccco1 | 17.3
O=C(Cc1ccc(Cl)cc1)NC(=S)Nc1ccccc1N1CCOCC1 | -6.41

SMILES | hERG current change (%, negative = inhibition) at 10uM [%]
CCOCCn1c(=NC(=O)c2cc(Cl)sc2Cl)sc2cc(S(N)(=O)=O)ccc21 | 10.4
CCc1ccc(Oc2nnnn2-c2ccc(C(N)=O)cc2)cc1 | 16.5
Cc1ccc(CCN=c2c([N+](=O)[O-])nn(-c3ccccc3)n2O)cc1 | 17
O=C1C=C(c2ccc3ccccc3c2)C[C@@H](c2ccc(F)cc2)C1 | -0.559
CCOc1ccc(-c2nc(N)ncc2-c2ccc(Cl)cc2)c(O)c1 | 10.8
CCC(NC(=O)CCc1c(C)c2cc3c(C)c(C)oc3cc2oc1=O)C(=O)N[C@@H](Cc1ccccc1)C(=O)O (some centres unmarked) | 18.3
CN(Cc1ncc[nH]1)Cc1cn(-c2ccccc2)nc1-c1ccc2c(c1)OCO2 | -60.1
CCCCNC(=O)N1CCCN(c2ccc(C#N)cn2)CC1 | -49.8
c1ccc2c(c1)CCCN2Cc1nnnn1C1CCCC1 | -3.84
COc1ccc(CNC(=O)Cn2cncn2)cc1OC | 6.37
CCc1ccc(-c2cc(C)no2)cc1S(=O)(=O)N1CCN(c2ccccc2F)CC1 | 15.7
O=C(Nc1c(-c2ccccc2)nc2ccccn12)c1ccccc1 | 12.4
Cc1nn2c(=O)cc(CSCC(=O)Nc3ccccc3F)nc2s1 | 14.4
COc1ccc(NC2=C(Cl)C(=O)N(c3ccccc3)C2=O)c(OC)c1 | 15.5
O=C(c1ccco1)N(Cc1ccco1)Cc1cc2ccccc2[nH]c1=O | -17.9
CCC(C)[C@H](NC(=O)NCc1ccc(OC)c(OC)c1)C(=O)O (some centres unmarked) | 7.82
CC(C)COc1cccc(C(=O)N(CC(=O)Nc2ccccc2C(F)(F)F)Cc2ccco2)c1 | -0.756
CCCC(=O)Nc1ccc(C(=O)NN2C(=O)c3ccccc3C2=O)cc1 | 1.91
Cc1ccc(SC(C)C(=O)NCc2ccc(F)cc2)cc1 (centres unmarked) | -2.86
Cc1ccc(S(=O)(=O)NCC(=O)OCC(=O)Nc2ncc(Cl)cc2Cl)cc1 | -6

From article PMC4336329 (PLoS ONE, 2015)
